# Reference: PubChem BioAssay AID1865 (National Center for Advancing Translational Sciences (NCATS), 2009)
# Screen size: about 280,000 compounds; about 540 (0.19%) were called active. The inconclusive results got no clear call from the source; some entries with a clear call stand among them for comparison. Calls follow the shape of the dose curve; as a rule, active = well fitted activation curve with a large enough effect; inconclusive = small, poorly fitted or top-dose-only effect; inactive = flat fitted curve, though single readings scatter. Potencies beside an inconclusive call are fits to weak or partial responses and may not hold up.
# Test: Quantitative High-Throughput Screen for Regulators of Epigenetic Control; also: nearly all actives have a fitted effect of over 60% in size
# Conditions: murine LDR cells, GFP reporter derepression, 30 h; series mostly up to 53.9 µM
# Method in brief: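 Reporter derepression read as number of fluorescent GFP-positive objects, 20-120 um in size, counted by laser-scanning cytometer. Mouse LDR line with an epigenetically silenced CMV-GFP locus; compound incubation 30 h, 37 C.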
# Potency is read from the fitted curve at half-maximal effect; tags tell the direction and shape of the fitted curve.
row,SMILES,Potency
1,COc1ccc(Cn2c3ccc(OC)cc3c3nc4ccccc4nc32)cc1,"inconclusive: 15.8 µM [activator, single point]"
2,CCCc1cc(NCc2ccccn2)n2nc(C)c(-c3ccccc3)c2n1,"inconclusive: 31.6 µM [activator, single point]"
3,COc1cc2c(cc1OC)-c1cc(N3CCc4ccccc43)nc(=O)n1CC2,"inconclusive: 35.5 µM [activator, single point]"
4,Cc1ccc(NC(=O)C2=C(c3ccccc3)S(=O)(=O)CCS2(=O)=O)cc1,"inconclusive: 5.62 µM [activator, single point]"
5,CC(C)N1C(=S)SC(C)(C)C1NO (centres undefined),"inconclusive: 28.2 µM [activator, single point]"
6,Cc1ccc(/C=N/N2CCN(C3c4ccccc4-c4ccccc43)CC2)s1,inactive
7,Cc1ccc(S(=O)(=O)c2cc3c(=O)n4cc(C)ccc4nc3n(CC3CCCO3)c2=N)cc1 (centres undefined),"inconclusive: 22.4 µM [activator, single point]"
8,Cc1ccc(Oc2cc([N+](=O)[O-])cc3c2C(=O)Nc2ccccc2O3)cc1,"inconclusive: 35.5 µM [activator, single point]"
9,O=C(CCCN1C(=O)/C(=C\c2ccco2)SC1=S)Nc1ccc2ccccc2c1,"inconclusive: 25.1 µM [activator, single point]"
10,O=C(Nc1ccc(N2CCN(C(=O)c3ccc(Cl)cc3)CC2)cc1)c1ccc([N+](=O)[O-])o1,"inconclusive: 3.55 µM [activator, single point]"
11,CN1C(=O)/C(=C\c2cc(Br)cs2)c2ccccc21,"inconclusive: 35.5 µM [activator, single point]"
12,COc1ccc(-c2cc(C(=O)O)c3ccccc3n2)c(OC)c1,inactive
13,Cc1ccc(N(C(=O)CCC(=O)Nc2nccs2)C(C(=O)NC(C)(C)C)c2ccc(O)cc2)cc1 (centres undefined),"inconclusive: 17.8 µM [activator, single point]"
14,Cc1nc(NC(=O)c2cccc(-c3cc4ccccc4oc3=O)c2)ccc1Br,"inconclusive: 31.6 µM [activator, single point]"
15,Cn1nnnc1SCc1nc2scc(-c3ccc(Cl)cc3)c2c(=O)[nH]1,"inconclusive: 35.5 µM [activator, single point]"
16,Cn1c(-c2ccc3nc(N)sc3c2)nc2cc(N)ccc21,inactive
17,COc1ccc(-c2cc(CNC(=O)CCl)on2)cc1,"inconclusive: 22.4 µM [activator, single point]"
18,O=C1S/C(=C\c2ccc(N3CCOCC3)o2)C(=O)N1Cc1c(F)cccc1Cl,active: 8.91 µM
19,COC(=O)Cn1cc(/C=C/[N+](=O)[O-])c2ccccc21,"inconclusive: 25.1 µM [activator, single point]"
20,Cc1ccc(-c2nc(-c3cccnc3)sc2CC(=O)Nc2ccc3nc(C)sc3c2)cc1,"inconclusive: 35.5 µM [activator, single point]"
21,O=C(CSC1=NS(=O)(=O)c2ccccc21)Nc1ccccc1,inactive
22,COc1cc2c3nnc(-c4ccc(F)cc4)c-3cn(Cc3cccc(F)c3)c2cc1OC,active: 7.08 µM
23,CCN1CCc2c(sc(NC(=O)Nc3ccc(Cl)c(Cl)c3)c2C(N)=O)C1,"inconclusive: 3.16 µM [activator, partial curve]"

row,SMILES,Potency
1,COc1ccc(CNC(=O)C2CCN(S(=O)(=O)c3c(C)noc3/C=C/c3cccs3)CC2)cc1,"inconclusive: 35.5 µM [activator, single point]"
2,COc1ccc(S(=O)(=O)Nc2ccc(F)cc2)cc1N(C)S(=O)(=O)c1ccc(Cl)cc1,inactive
3,CNc1sc(C(=O)c2ccc(F)cc2)c(N)c1-c1nc2ccccc2s1,inactive
4,CCOc1ccc(NC(=O)C2CCN(S(=O)(=O)c3ccc4c(c3)oc(=O)n4C)CC2)cc1,"inconclusive: 35.5 µM [activator, single point]"
5,S=c1[nH]nc(-c2cccnc2)n1/N=C/C(Cl)=C\c1ccccc1,"inconclusive: 31.6 µM [activator, single point]"
6,CCCCSc1nc(-c2ccc(OC)cc2)ccc1C#N,inactive
7,COc1ccc(OC)c(-n2nnnc2SCC(=O)Nc2ccccc2N2CCOCC2)c1,inactive
8,COc1ccc(-c2cn[nH]c2-c2ccc(OCc3ccccc3)cc2O)cc1OC,"inconclusive: 15.8 µM [activator, single point]"
9,COc1ccc2nc(Nc3nc(CSc4nc5ccccc5[nH]4)cc(=O)[nH]3)nc(C)c2c1,"inconclusive: 12.6 µM [activator, single point]"
10,CCOC(=O)c1cn(-c2ccccc2)nc1-c1ccncc1,inactive
11,COc1cccc(CNC(=O)c2sc3nc(C)cc(C)c3c2-n2cccc2)c1OC,"inconclusive: 17.8 µM [activator, single point]"
12,O=C1N/C(=N/Nc2ccccc2)S/C1=C\c1ccccc1,"inconclusive: 5.62 µM [activator, single point]"
13,Cc1cc(-n2c(C)cc(C(=O)CCl)c2C)no1,"inconclusive: 22.4 µM [activator, single point]"
14,Cc1nn(CC(O)COc2ccc3c(c2)CCC3)c(C)c1C (centres undefined),inactive
15,O=C(Nc1ccccc1)C1=C[C@@H](c2csc3ccccc23)C[C@@H](OCc2ccc(CO)cc2)O1,"inconclusive: 31.6 µM [activator, single point]"
16,COc1ccccc1CCn1c(N)c(C#N)c2nc3ccccc3nc21,"inconclusive: 22.4 µM [activator, single point]"
17,O=C(CCCCCn1c(=S)[nH]c2ccc(N3CCOCC3)cc2c1=O)NCc1ccccc1Cl,"inconclusive: 31.6 µM [activator, single point]"
18,CCOC(=O)c1ccc(-c2ccc(/C=C(\C#N)c3nc4ccc(C)cc4[nH]3)o2)cc1,active: 1.58 µM
19,Cc1nn(-c2ccc(Cl)c(Cl)c2Cl)c(=O)c2ccccc12,inactive
20,CC(C)C(=O)Nc1ccc(C(=O)N/N=C/c2cc(Br)cc(Br)c2O)cc1,"inconclusive: 35.5 µM [activator, single point]"
21,CC(C)[C@H](NC(N)=O)C(=O)Nc1ccc(OCc2ccccc2)cc1,"inconclusive: 0.0045 µM [activator, full curve, poor fit]"
22,Cc1ccc2nc(Nc3nc(CSc4nnc(C)s4)cc(=O)[nH]3)nc(C)c2c1,"inconclusive: 35.5 µM [activator, single point]"
23,Cc1ccc(C(=O)Oc2ccc(Cl)c3cccnc23)cc1[N+](=O)[O-],"inconclusive: 35.5 µM [activator, single point]"

row,SMILES,Potency
1,CCOC(=O)c1cc2c(=O)n3ccccc3nc2n(Cc2ccco2)c1=NC(=O)c1ccc(C)c(C)c1,"inconclusive: 35.5 µM [activator, single point]"
2,CCOC(=O)c1c(S(=O)(=O)NCC(=O)N2CCN(c3cc(C)ccc3C)CC2)c(C)n(C)c1C,inactive
3,COc1ccc(CCNC(=O)CN(c2ccc(C)cc2)S(=O)(=O)c2c(C)noc2C)cc1OC,"inconclusive: 5.01 µM [activator, full curve]"
4,COc1c(O)cc2oc3cc(O)c(CC=C(C)C)c(O)c3c(=O)c2c1CC=C(C)C,inactive
5,O=C1C=CC(=O)N1CCNc1ncc(C(F)(F)F)cc1Cl,"inconclusive: 3.55 µM [activator, single point]"
6,C(=C\c1nc(-c2cccnc2)no1)/c1ccccc1,"inconclusive: 14.1 µM [activator, single point]"
7,CCOC(=O)c1sc(N2C(=O)c3oc4ccc(C)cc4c(=O)c3C2c2ccccc2F)nc1C (centres undefined),inactive
8,COC(=O)c1ccc(NC(=O)CC2Nc3cc(C)c(C)cc3NC2=O)cc1 (centres undefined),"inconclusive: 35.5 µM [activator, single point]"
9,C=C1C(=O)O[C@@H]2[C@H]3O[C@]3(C)CCC=C(C)CC[C@@H]12,"inconclusive: 0.178 µM [activator, full curve]"
10,O=C1/C(=C/c2ccc(O)cc2)SC(=S)N1CC1CCCO1 (centres undefined),inactive
11,COCCn1c(C)cc(C2=NNC(=Nc3ccc(Cl)cc3Cl)SC2)c1C,inactive
12,O=C(CSc1c2c(nc3cc(Cl)ccc13)CCCC2)NCCN1CCOCC1,inactive
13,CCN(CC)c1ccc2c(c1)oc(=O)c1c(Cl)cc(=O)oc12,active: 8.91 µM
14,Cc1ccc(S(=O)(=O)CCSC(=N)N)cc1,"inconclusive: 20 µM [activator, single point]"
15,Cc1ccc(NC(=O)N2CC3CCCN3c3ccccc32)c(C)c1 (centres undefined),"inconclusive: 11.2 µM [activator, single point]"
16,O=C(CSc1nnc(Cc2cccs2)n1-c1ccccc1)Nc1ccc2c(c1)OCCO2,"inconclusive: 35.5 µM [activator, single point]"
17,Cc1ccc(NC(=S)NCc2cccs2)cc1,inactive
18,COc1ccc(-c2cc(-c3ccc4c(c3)NC(=O)CO4)nc3c2COc2ccc(F)cc2-3)cc1,inactive
19,CCc1ccc(NC(=O)c2ccc(F)c(S(=O)(=O)NCc3ccc(Cl)c(Cl)c3)c2)cc1,"inconclusive: 14.1 µM [activator, single point]"
20,CCOC(=O)c1[nH]c2ccccc2c1NC(=O)CC(C)(C)C,"inconclusive: 35.5 µM [activator, single point]"
21,O=C(Nc1nc(-c2ccccc2)cs1)c1ccco1,inactive
22,O=S(=O)(Cc1ccccc1)c1nnnn1-c1ccccc1,inactive
23,O=C(CSc1cccc[n+]1[O-])Nc1ccccc1Oc1ccccc1,"inconclusive: 5.01 µM [activator, single point]"
